Numbering of substitutions follows the chain as printed; changes in the protein carry UniProt numbers. The list shows a part of the results.
T1: RBFOX1 RRM RbFoxmut (Fox-RRM*) (Homo sapiens, UniProt Q9NWB1 109-208, R118D;E147R;N151S;E152T)
T1 sequence: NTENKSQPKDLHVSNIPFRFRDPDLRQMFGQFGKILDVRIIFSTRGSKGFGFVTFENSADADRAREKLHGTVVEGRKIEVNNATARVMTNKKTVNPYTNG

B1: UGAACAA (DNA:RNA)
RNA: GGGAGACCGGAAUUCAGAUUGUCCUGAACAAUUAAAUCCCGUCGUAGCCACCA
DNA 1: CAATCTGAATTCCGGTCTCCC
DNA 2: TGGTGGCTACGACGGGATT
B2: CUUAGCC (DNA:RNA)
RNA: B1 RNA with U25C, G26U, A27U, C29G, A30C, A31C
DNA 1: CAATCTGAATTCCGGTCTCCC
DNA 2: TGGTGGCTACGACGGGATT
B3: AUAGAAC (DNA:RNA)
RNA: B1 RNA with U25A, G26U, A28G, C29A, A31C
DNA 1: CAATCTGAATTCCGGTCTCCC
DNA 2: TGGTGGCTACGACGGGATT
B4: CGCGUAG (DNA:RNA)
RNA: B1 RNA with U25C, A27C, A28G, C29U, A31G
DNA 1: CAATCTGAATTCCGGTCTCCC
DNA 2: TGGTGGCTACGACGGGATT
B5: GGGCAUC (DNA:RNA)
RNA: B1 RNA with U25G, A27G, A28C, C29A, A30U, A31C
DNA 1: CAATCTGAATTCCGGTCTCCC
DNA 2: TGGTGGCTACGACGGGATT
B6: UUAGAAU (DNA:RNA)
RNA: B1 RNA with G26U, A28G, C29A, A31U
DNA 1: CAATCTGAATTCCGGTCTCCC
DNA 2: TGGTGGCTACGACGGGATT
B7: CGCAAUU (DNA:RNA)
RNA: B1 RNA with U25C, A27C, C29A, A30U, A31U
DNA 1: CAATCTGAATTCCGGTCTCCC
DNA 2: TGGTGGCTACGACGGGATT
B8: CGUCUGC (DNA:RNA)
RNA: B1 RNA with U25C, A27U, A28C, C29U, A30G, A31C
DNA 1: CAATCTGAATTCCGGTCTCCC
DNA 2: TGGTGGCTACGACGGGATT
B9: UGUCCUC (DNA:RNA)
RNA: B1 RNA with A27U, A28C, A30U, A31C
DNA 1: CAATCTGAATTCCGGTCTCCC
DNA 2: TGGTGGCTACGACGGGATT
B10: AACGGAG (DNA:RNA)
RNA: B1 RNA with U25A, G26A, A27C, A28G, C29G, A31G
DNA 1: CAATCTGAATTCCGGTCTCCC
DNA 2: TGGTGGCTACGACGGGATT
B11: GGGAAUC (DNA:RNA)
RNA: B1 RNA with U25G, A27G, C29A, A30U, A31C
DNA 1: CAATCTGAATTCCGGTCTCCC
DNA 2: TGGTGGCTACGACGGGATT
B12: GUUUAAG (DNA:RNA)
RNA: B1 RNA with U25G, G26U, A27U, A28U, C29A, A31G
DNA 1: CAATCTGAATTCCGGTCTCCC
DNA 2: TGGTGGCTACGACGGGATT
B13: CUAAGCA (DNA:RNA)
RNA: B1 RNA with U25C, G26U, C29G, A30C
DNA 1: CAATCTGAATTCCGGTCTCCC
DNA 2: TGGTGGCTACGACGGGATT
B14: UCACUUA (DNA:RNA)
RNA: B1 RNA with G26C, A28C, C29U, A30U
DNA 1: CAATCTGAATTCCGGTCTCCC
DNA 2: TGGTGGCTACGACGGGATT
B15: AUGCUUG (DNA:RNA)
RNA: GGGAGACCGGAAUUCAGAUUGUCCAUGCUUGUUAAAUCCCGUCGUAGCCACCA
DNA 1: CAATCTGAATTCCGGTCTCCC
DNA 2: TGGTGGCTACGACGGGATT
B16: CGAUGGU (DNA:RNA)
RNA: B1 RNA with U25C, A28U, C29G, A30G, A31U
DNA 1: CAATCTGAATTCCGGTCTCCC
DNA 2: TGGTGGCTACGACGGGATT
B17: AUCUACG (DNA:RNA)
RNA: B15 RNA with G27C, C28U, U29A, U30C
DNA 1: CAATCTGAATTCCGGTCTCCC
DNA 2: TGGTGGCTACGACGGGATT
B18: UGGAGGC (DNA:RNA)
RNA: B1 RNA with A27G, C29G, A30G, A31C
DNA 1: CAATCTGAATTCCGGTCTCCC
DNA 2: TGGTGGCTACGACGGGATT
B19: ACAAAAU (DNA:RNA)
RNA: B1 RNA with U25A, G26C, C29A, A31U
DNA 1: CAATCTGAATTCCGGTCTCCC
DNA 2: TGGTGGCTACGACGGGATT
B20: UGCGCGG (DNA:RNA)
RNA: B1 RNA with A27C, A28G, A30G, A31G
DNA 1: CAATCTGAATTCCGGTCTCCC
DNA 2: TGGTGGCTACGACGGGATT
B21: UCACCCU (DNA:RNA)
RNA: B1 RNA with G26C, A28C, A30C, A31U
DNA 1: CAATCTGAATTCCGGTCTCCC
DNA 2: TGGTGGCTACGACGGGATT
B22: GUCGUGG (DNA:RNA)
RNA: B15 RNA with A25G, G27C, C28G, U30G
DNA 1: CAATCTGAATTCCGGTCTCCC
DNA 2: TGGTGGCTACGACGGGATT
B23: AGACAUG (DNA:RNA)
RNA: B15 RNA with U26G, G27A, U29A
DNA 1: CAATCTGAATTCCGGTCTCCC
DNA 2: TGGTGGCTACGACGGGATT
B24: GCACGGG (DNA:RNA)
RNA: B15 RNA with A25G, U26C, G27A, U29G, U30G
DNA 1: CAATCTGAATTCCGGTCTCCC
DNA 2: TGGTGGCTACGACGGGATT
B25: CAUCCAU (DNA:RNA)
RNA: B1 RNA with U25C, G26A, A27U, A28C, A31U
DNA 1: CAATCTGAATTCCGGTCTCCC
DNA 2: TGGTGGCTACGACGGGATT
B26: GGGGUGG (DNA:RNA)
RNA: B15 RNA with A25G, U26G, C28G, U30G
DNA 1: CAATCTGAATTCCGGTCTCCC
DNA 2: TGGTGGCTACGACGGGATT
B27: CCGGAGA (DNA:RNA)
RNA: B15 RNA with A25C, U26C, C28G, U29A, U30G, G31A
DNA 1: CAATCTGAATTCCGGTCTCCC
DNA 2: TGGTGGCTACGACGGGATT
B28: ACUUCUC (DNA:RNA)
RNA: B15 RNA with U26C, G27U, C28U, U29C, G31C
DNA 1: CAATCTGAATTCCGGTCTCCC
DNA 2: TGGTGGCTACGACGGGATT
B29: GACACAG (DNA:RNA)
RNA: B1 RNA with U25G, G26A, A27C, A31G
DNA 1: CAATCTGAATTCCGGTCTCCC
DNA 2: TGGTGGCTACGACGGGATT
B30: AUGCAUG (DNA:RNA)
RNA: B15 RNA with U29A
DNA 1: CAATCTGAATTCCGGTCTCCC
DNA 2: TGGTGGCTACGACGGGATT
B31: UAUUGGC (DNA:RNA)
RNA: B1 RNA with G26A, A27U, A28U, C29G, A30G, A31C
DNA 1: CAATCTGAATTCCGGTCTCCC
DNA 2: TGGTGGCTACGACGGGATT

Each binder was assayed against T1, RBFOX1 RRM RbFoxmut (Fox-RRM*) (assay: EMSA; HiTS-Eq, 1 nM pool, 10 min; buffer printed only for the single-RNA assays: 10 mM Tris pH 7.5, 150 mM NaCl, 3.4 mM EDTA, 0.001% NP-40, 30 C). Conditions: tags: His6 N-terminal (pET28a); label: 5' 32P.
Outline: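 These values rest on relative association constants, computed from read-count changes of each RNA species versus the control reaction and normalised to the cognate motif. Reads came from free RNA recovered by 8% native PAGE after purified RbFox RRM (wild type or mutant) at increasing concentrations was equilibrated for 10 min in 50 µL with 1 nM of a 5′-radiolabelled pool with 7 randomized nucleotides and DNA-annealed flanks.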

Binder	binding signal
B1	0.047 KA relative to UGCAUGU
B2	0.159 KA relative to UGCAUGU
B3	0.0971 KA relative to UGCAUGU
B4	0.122 KA relative to UGCAUGU
B5	0.396 KA relative to UGCAUGU
B6	0.125 KA relative to UGCAUGU
B7	0.0714 KA relative to UGCAUGU
B8	0.121 KA relative to UGCAUGU
B9	0.0783 KA relative to UGCAUGU
B10	0.0895 KA relative to UGCAUGU
B11	0.494 KA relative to UGCAUGU
B12	0.131 KA relative to UGCAUGU
B13	0.162 KA relative to UGCAUGU
B14	0.116 KA relative to UGCAUGU
B15	0.361 KA relative to UGCAUGU
B16	0.112 KA relative to UGCAUGU

Binder	binding signal
B17	0.132 KA relative to UGCAUGU
B18	0.0871 KA relative to UGCAUGU
B19	0.0817 KA relative to UGCAUGU
B20	0.111 KA relative to UGCAUGU
B21	0.0812 KA relative to UGCAUGU
B22	0.112 KA relative to UGCAUGU
B23	0.102 KA relative to UGCAUGU
B24	0.129 KA relative to UGCAUGU
B25	0.117 KA relative to UGCAUGU
B26	0.121 KA relative to UGCAUGU
B27	0.0928 KA relative to UGCAUGU
B28	0.0475 KA relative to UGCAUGU
B29	0.0627 KA relative to UGCAUGU
B30	0.951 KA relative to UGCAUGU
B31	0.122 KA relative to UGCAUGU

Reference: PMC9911399, “Two distinct binding modes provide the RNA-binding protein RbFox with extraordinary sequence specificity”
